Measurements as given in the supplement of paper PMC12217912.
This is one part of the list. Sequences were assembled here from the parent chain. Values near 0.05 are background.

B1: TEV protease; numbered along this chain (parent)
chain: MGESLFKGPRDYNPISSSICHLTNESDGHTTSLYGIGFGPFIITNKHLFRRNNGTLVVQSLHGVFKVKDTTTLQQHLVDGRDMIIIRMPKDFPPFPQKLKFREPQREERICLVTTNFQTKSMSSMVSDTSCTFPSGDGIFWKHWIQTKDGQCGSPLVSTRDGFIVGIHSASNFTNTNNYFTSVPKNFMELLTNQEAQQWVSGWRLNADSVLWGGHKVFMVKPEEPFQPVKEATQL

Variants of: B1
Test: raw area under fraction-flipped curve 0-4 h after induction (AUC4h, not background-subtracted), DNA-recorder readout of cleavage of the substrate (dimensionless); higher = more cleavage of the substrate by the protease variant
Details: temperature: 34 °C; time window: 0-4 h after rhamnose induction
Description: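 In vivo DNA recorder in E. coli TOP10(DE3) ΔrhaA at 34 °C. Each TEVp single-site mutant (parent TEVp 0) is paired with a single-site variant of the 7-mer TEVs (canonical ENLYFQ|S). The substrate sits between flexible linkers in a Bxb1-sfGFP-TEVs-SsrA fusion, so cleavage stabilises Bxb1 and speeds flipping of a recombination array, read by NGS. The value is the raw area under the fraction-flipped curve over 0-4 h after rhamnose induction (AUC4h), with ≥20 reads per time point. It is not background-subtracted; inactive controls average about 0.047.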
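Also: Bxb1 expression induced with 0.2% (w/v) L-rhamnose at OD600 near 0.5, cultures sampled hourly, flipped fraction per protease–substrate barcode pair counted by paired-end Illumina sequencing.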

MGESLFKGPRDYNPISSSICHLTNESDGHTTSLYGIGFGPFIITNKHLFRRNNGTLVVQSLHGVTKVKDTTTLQQHLVDGRDMIIIRMPKDFPPFPQKLKFREPQREERICLVTTNFQTKSMSSMVSDTSCTFPSGDGIFWKHWIQTKDGQCGSPLVSTRDGFIVGIHSASNFTNTNNYFTSVPKNFMELLTNQEAQQWVSGWRLNADSVLWGGHKVFMVKPEEPFQPVKEATQL [F65T]
area with substrate ENLAFQS: 0.0519
area with substrate ENLCFQS: 0.0911
area with substrate ENLDFQS: 0.0493
area with substrate ENLEFQS: 0.0512
area with substrate ENLFFQS: 0.0722
area with substrate ENLHFQS: 0.0621
area with substrate ENLKFQS: 0.071
area with substrate ENLMFQS: 0.0676
area with substrate ENLNFQS: 0.0694
area with substrate ENLPFQS: 0.0581
area with substrate ENLQFQS: 0.0496
area with substrate ENLRFQS: 0.063
area with substrate ENLSFQS: 0.0739
area with substrate ENLTFQS: 0.0533
area with substrate ENLVFQS: 0.0763
area with substrate ENLWFQS: 0.0526

MGESLFKGPRDYNPISSSICHLTNESDGHTTSLYGIGFGPFIITNKHLFRRNNGTLVVQSLHGVFKVKITTTLQQHLVDGRDMIIIRMPKDFPPFPQKLKFREPQREERICLVTTNFQTKSMSSMVSDTSCTFPSGDGIFWKHWIQTKDGQCGSPLVSTRDGFIVGIHSASNFTNTNNYFTSVPKNFMELLTNQEAQQWVSGWRLNADSVLWGGHKVFMVKPEEPFQPVKEATQL [D69I]
area with substrate ENLAFQS: 0.0617
area with substrate ENLFFQS: 0.0682
area with substrate ENLHFQS: 0.0587
area with substrate ENLIFQS: 0.0617
area with substrate ENLKFQS: 0.0634
area with substrate ENLNFQS: 0.0664
area with substrate ENLPFQS: 0.0627
area with substrate ENLQFQS: 0.0331
area with substrate ENLSFQS: 0.0699
area with substrate ENLWFQS: 0.0717

MGESLFKGPRDYNPISSSICHLTNESDGHTTSLYGIGFGPFIITNKHLFRRNNGTLVVQSLHGVFKVKCTTTLQQHLVDGRDMIIIRMPKDFPPFPQKLKFREPQREERICLVTTNFQTKSMSSMVSDTSCTFPSGDGIFWKHWIQTKDGQCGSPLVSTRDGFIVGIHSASNFTNTNNYFTSVPKNFMELLTNQEAQQWVSGWRLNADSVLWGGHKVFMVKPEEPFQPVKEATQL [D69C]
area with substrate ENLAFQS: 0.0594
area with substrate ENLCFQS: 0.0434
area with substrate ENLDFQS: 0.0703
area with substrate ENLEFQS: 0.0655
area with substrate ENLFFQS: 0.0795
area with substrate ENLIFQS: 0.0778
area with substrate ENLLFQS: 0.0661
area with substrate ENLNFQS: 0.0579
area with substrate ENLPFQS: 0.0729
area with substrate ENLQFQS: 0.0593
area with substrate ENLRFQS: 0.0597
area with substrate ENLWFQS: 0.0569

MGESLFKGPRDYNPISSSICHLTNESDGHTTSLYGIGFGPFIITNKHLFRRNNGTLVVQSLHDVFKVKDTTTLQQHLVDGRDMIIIRMPKDFPPFPQKLKFREPQREERICLVTTNFQTKSMSSMVSDTSCTFPSGDGIFWKHWIQTKDGQCGSPLVSTRDGFIVGIHSASNFTNTNNYFTSVPKNFMELLTNQEAQQWVSGWRLNADSVLWGGHKVFMVKPEEPFQPVKEATQL [G63D]
area with substrate ENLAFQS: 0.0336
area with substrate ENLCFQS: 0.0806
area with substrate ENLDFQS: 0.105
area with substrate ENLEFQS: 0.056
area with substrate ENLFFQS: 0.0849
area with substrate ENLGFQS: 0.0463
area with substrate ENLHFQS: 0.0541
area with substrate ENLIFQS: 0.0675
area with substrate ENLKFQS: 0.0476
area with substrate ENLNFQS: 0.056
area with substrate ENLPFQS: 0.059
area with substrate ENLQFQS: 0.0603
area with substrate ENLRFQS: 0.0642
area with substrate ENLSFQS: 0.0503
area with substrate ENLVFQS: 0.0698

MGESLFKGPRDYNPISSSICHLTNESDGHTTSLYGIGFGPFIITNKHLFRRNNGTLVVQQLHGVFKVKDTTTLQQHLVDGRDMIIIRMPKDFPPFPQKLKFREPQREERICLVTTNFQTKSMSSMVSDTSCTFPSGDGIFWKHWIQTKDGQCGSPLVSTRDGFIVGIHSASNFTNTNNYFTSVPKNFMELLTNQEAQQWVSGWRLNADSVLWGGHKVFMVKPEEPFQPVKEATQL [S60Q]
area with substrate ENLAFQS: 0.0487
area with substrate ENLDFQS: 0.0683
area with substrate ENLEFQS: 0.064
area with substrate ENLFFQS: 0.0857
area with substrate ENLGFQS: 0.0871
area with substrate ENLHFQS: 0.0697
area with substrate ENLIFQS: 0.0691
area with substrate ENLKFQS: 0.0658
area with substrate ENLLFQS: 0.0776
area with substrate ENLMFQS: 0.0693
area with substrate ENLNFQS: 0.0676
area with substrate ENLPFQS: 0.0511
area with substrate ENLSFQS: 0.0767

MGESLFKGPRDYNPISSSICHLTNESDGHTTSLYGIGFGPFIITNKHLFRRNNGTLVVQDLHGVFKVKDTTTLQQHLVDGRDMIIIRMPKDFPPFPQKLKFREPQREERICLVTTNFQTKSMSSMVSDTSCTFPSGDGIFWKHWIQTKDGQCGSPLVSTRDGFIVGIHSASNFTNTNNYFTSVPKNFMELLTNQEAQQWVSGWRLNADSVLWGGHKVFMVKPEEPFQPVKEATQL [S60D]
area with substrate ENLAFQS: 0.0411
area with substrate ENLDFQS: 0.0554
area with substrate ENLEFQS: 0.0632
area with substrate ENLFFQS: 0.0824
area with substrate ENLHFQS: 0.0691
area with substrate ENLIFQS: 0.0715
area with substrate ENLKFQS: 0.0697
area with substrate ENLLFQS: 0.0659
area with substrate ENLMFQS: 0.0822
area with substrate ENLNFQS: 0.0616
area with substrate ENLRFQS: 0.0636
area with substrate ENLSFQS: 0.0704
area with substrate ENLTFQS: 0.0503

MGESLFKGPRDYNPISSSICHLTNESDGHTTSLYGIGFGPFIITNKHLFRRNNGTLVVQELHGVFKVKDTTTLQQHLVDGRDMIIIRMPKDFPPFPQKLKFREPQREERICLVTTNFQTKSMSSMVSDTSCTFPSGDGIFWKHWIQTKDGQCGSPLVSTRDGFIVGIHSASNFTNTNNYFTSVPKNFMELLTNQEAQQWVSGWRLNADSVLWGGHKVFMVKPEEPFQPVKEATQL [S60E]
area with substrate ENLAFQS: 0.0494
area with substrate ENLCFQS: 0.0532
area with substrate ENLDFQS: 0.0502
area with substrate ENLEFQS: 0.0535
area with substrate ENLFFQS: 0.0499
area with substrate ENLHFQS: 0.0469
area with substrate ENLIFQS: 0.0561
area with substrate ENLKFQS: 0.0536
area with substrate ENLLFQS: 0.0531
area with substrate ENLMFQS: 0.0544
area with substrate ENLNFQS: 0.0608
area with substrate ENLPFQS: 0.0483
area with substrate ENLSFQS: 0.047
area with substrate ENLTFQS: 0.0611
area with substrate ENLVFQS: 0.0738
area with substrate ENLWFQS: 0.0358

MGESLFKGPRDYNPISSSICHLTNESDGHTTSLYGIGFGPFIITNKHLFRRNNGTLVVQSLHGVFKVKDATTLQQHLVDGRDMIIIRMPKDFPPFPQKLKFREPQREERICLVTTNFQTKSMSSMVSDTSCTFPSGDGIFWKHWIQTKDGQCGSPLVSTRDGFIVGIHSASNFTNTNNYFTSVPKNFMELLTNQEAQQWVSGWRLNADSVLWGGHKVFMVKPEEPFQPVKEATQL [T70A]
area with substrate ENLAFQS: 0.0624
area with substrate ENLDFQS: 0.0818
area with substrate ENLEFQS: 0.0534
area with substrate ENLFFQS: 0.0586
area with substrate ENLIFQS: 0.0727
area with substrate ENLKFQS: 0.0674
area with substrate ENLPFQS: 0.0374
area with substrate ENLSFQS: 0.0541

MGESLFKGPRDYNPISSSICHLTNESDGHTTSLYGIGFGPFIITNKHLFRRNNGTLVVQSLHGVFKVKDWTTLQQHLVDGRDMIIIRMPKDFPPFPQKLKFREPQREERICLVTTNFQTKSMSSMVSDTSCTFPSGDGIFWKHWIQTKDGQCGSPLVSTRDGFIVGIHSASNFTNTNNYFTSVPKNFMELLTNQEAQQWVSGWRLNADSVLWGGHKVFMVKPEEPFQPVKEATQL [T70W]
area with substrate ENLAFQS: 0.0621
area with substrate ENLCFQS: 0.0677
area with substrate ENLDFQS: 0.0626
area with substrate ENLEFQS: 0.0603
area with substrate ENLFFQS: 0.0756
area with substrate ENLHFQS: 0.0624
area with substrate ENLIFQS: 0.0729
area with substrate ENLKFQS: 0.0699
area with substrate ENLLFQS: 0.0565
area with substrate ENLMFQS: 0.0679
area with substrate ENLNFQS: 0.0668
area with substrate ENLPFQS: 0.0625
area with substrate ENLQFQS: 0.0678
area with substrate ENLRFQS: 0.0627
area with substrate ENLSFQS: 0.0637
area with substrate ENLVFQS: 0.0595
